Some of the results follow.
Key:
Experiment in all cases: glycan array binding signal (z-score within array); higher = stronger binding
Conditions in all cases: glycan notation: IUPAC condensed, linker removed
[1] = biological target: GlcNAc(b1-3)Gal(b1-4)GlcNAc(b1-3)Gal(b1-4)GlcNAc(b1-3)GalNAc
Method in brief: (§1)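 The binding signal is a Z-score computed within each array and averaged over linkers. Arrays of the same protein sequence at different concentrations or buffers were also averaged together. Data originate from 3228 arrays in the Consortium for Functional Glycomics database, kept only where the protein sequence was available.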

[2] = biological target: GlcNAc(b1-3)Gal(b1-4)GlcNAc(b1-3)GalNAc
Method in brief: as §1

[3] = biological target: GlcNAc(b1-3)Gal(b1-4)GlcNAc(b1-3)[GlcNAc(b1-3)Gal(b1-4)GlcNAc(b1-3)]GalNAc
Method in brief: as §1

[4] = biological target: GlcNAc(b1-3)Gal(b1-4)GlcNAc(b1-6)[Gal(b1-3)]GalNAc
Method in brief: as §1

[5] = biological target: GlcNAc(b1-3)Gal(b1-4)GlcNAc(b1-6)[GlcNAc(b1-3)Gal(b1-3)]GalNAc
Method in brief: as §1

[6] = biological target: GlcNAc(b1-3)Gal(b1-4)GlcNAc(b1-6)[GlcNAc(b1-3)]Gal(b1-4)GlcNAc
Method in brief: as §1

GlcNAc(b1-3)GalNAc = biological target: GlcNAc(b1-3)GalNAc
Method in brief: as §1

GlcNAc(b1-3)Man = biological target: GlcNAc(b1-3)Man
Method in brief: as §1

[7] = biological target: GlcNAc(b1-3)[GlcNAc(b1-4)][GlcNAc(b1-6)]GlcNAc
Method in brief: as §1

[8] = biological target: GlcNAc(b1-3)[GlcNAc(b1-6)]Gal(b1-4)GlcNAc
Method in brief: as §1

[9] = biological target: GlcNAc(b1-3)[GlcNAc(b1-6)]GalNAc
Method in brief: as §1

[10] = biological target: GlcNAc(b1-4)Gal(b1-4)GlcNAc
Method in brief: as §1

GlcNAc(b1-4)GlcNAc = biological target: GlcNAc(b1-4)GlcNAc
Method in brief: as §1

[11] = biological target: GlcNAc(b1-4)GlcNAc(b1-4)GlcNAc
Method in brief: as §1

[12] = biological target: GlcNAc(b1-4)GlcNAc(b1-4)GlcNAc(b1-4)GlcNAc(b1-4)GlcNAc
Method in brief: as §1

[13] = biological target: GlcNAc(b1-4)GlcNAc(b1-4)GlcNAc(b1-4)GlcNAc(b1-4)GlcNAc(b1-4)GlcNAc
Method in brief: as §1

[14] = biological target: GlcNAc(b1-4)[GlcNAc(b1-6)]GalNAc
Method in brief: as §1

[15] = biological target: GlcNAc(b1-6)Gal(b1-4)GlcNAc
Method in brief: as §1

GlcNAc(b1-6)GalNAc = biological target: GlcNAc(b1-6)GalNAc
Method in brief: as §1

[16] = biological target: GlcNAc6S(b1-3)Gal(b1-4)GlcNAc
Method in brief: as §1

Kdn(a2-3)Gal(b1-3)GalNAc = biological target: Kdn(a2-3)Gal(b1-3)GalNAc
Method in brief: as §1

Kdn(a2-3)Gal(b1-3)GlcNAc = biological target: Kdn(a2-3)Gal(b1-3)GlcNAc
Method in brief: as §1

Kdn(a2-3)Gal(b1-4)Glc = biological target: Kdn(a2-3)Gal(b1-4)Glc
Method in brief: as §1

Kdn(a2-3)Gal(b1-4)GlcNAc = biological target: Kdn(a2-3)Gal(b1-4)GlcNAc
Method in brief: as §1

[17] = biological target: Kdn(a2-3)Gal(b1-4)[Fuc(a1-3)]GlcNAc
Method in brief: as §1

Kdn(a2-6)Gal(b1-4)GlcNAc = biological target: Kdn(a2-6)Gal(b1-4)GlcNAc
Method in brief: as §1

[18] = biological target: Man(a1-2)Man(a1-2)Man(a1-3)Man
Method in brief: as §1

[19] = biological target: Man(a1-2)Man(a1-2)Man(a1-6)[Man(a1-3)]Man
Method in brief: as §1

Man(a1-2)Man(a1-3)Man = biological target: Man(a1-2)Man(a1-3)Man
Method in brief: as §1

[20] = biological target: Man(a1-2)Man(a1-3)[Man(a1-2)Man(a1-6)]Man
Method in brief: as §1

[21] = biological target: Man(a1-2)Man(a1-3)[Man(a1-2)Man(a1-6)]Man(a1-6)[Man(a1-2)Man(a1-2)Man(a1-3)]Man
Method in brief: as §1

[22] = biological target: Man(a1-2)Man(a1-3)[Man(a1-2)Man(a1-6)]Man(a1-6)[Man(a1-2)Man(a1-2)Man(a1-3)]Man(b1-4)GlcNAc(b1-4)GlcNAc
Method in brief: as §1

[23] = biological target: Man(a1-2)Man(a1-3)[Man(a1-6)]Man(a1-6)[Man(a1-2)Man(a1-3)]Man(b1-4)GlcNAc(b1-4)GlcNAc
Method in brief: as §1

[24] = biological target: Man(a1-2)Man(a1-6)[Man(a1-3)]Man(a1-6)[Man(a1-2)Man(a1-2)Man(a1-3)]Man
Method in brief: as §1

[25] = biological target: Man(a1-2)Man(a1-6)[Man(a1-3)]Man(a1-6)[Man(a1-2)Man(a1-2)Man(a1-3)]Man(b1-4)GlcNAc(b1-4)GlcNAc
Method in brief: as §1

Man(a1-3)[Man(a1-6)]Man = biological target: Man(a1-3)[Man(a1-6)]Man
Method in brief: as §1

[26] = biological target: Man(a1-3)[Man(a1-6)]Man(a1-6)[Man(a1-2)Man(a1-3)]Man(b1-4)GlcNAc(b1-4)GlcNAc
Method in brief: as §1

[27] = biological target: Man(a1-3)[Man(a1-6)]Man(a1-6)[Man(a1-3)]Man
Method in brief: as §1

[28] = biological target: Man(a1-3)[Man(a1-6)]Man(a1-6)[Man(a1-3)]Man(b1-4)GlcNAc(b1-4)GlcNAc
Method in brief: as §1

[29] = biological target: Man(a1-3)[Man(a1-6)]Man(b1-4)GlcNAc(b1-4)GlcNAc
Method in brief: as §1

[30] = biological target: Man(a1-3)[Man(a1-6)]Man(b1-4)GlcNAc(b1-4)[Fuc(a1-6)]GlcNAc
Method in brief: as §1

Man(a1-6)Man = biological target: Man(a1-6)Man
Method in brief: as §1

Man(b1-4)GlcNAc = biological target: Man(b1-4)GlcNAc
Method in brief: as §1

MurNAc(b1-4)GlcNAc = biological target: MurNAc(b1-4)GlcNAc
Method in brief: as §1

Neu5Ac(a2-3)Gal = biological target: Neu5Ac(a2-3)Gal
Method in brief: as §1

B1: PX14375C-bth-509-28-509 (Bacteroides thetaiotaomicron) (protein)
chain: RSPQGQFTEDDNPNALVNGKIYNVYTMMRSFDITAGTPAIAIHYLRSEDSEKGSIPSDGSDVAEMYDDFLYTPTNGLLGSYWGKNYAIIYQCNDILDAIAEKETAGQTETEDIINKGEASFFRAYCYFNLVRAFGEVPLVTYKINDASEANIPKTTADKIYEQIDTDLKTAEESLPETWSTEYTGRLTWGAARSLHARTYMMRSDWDNMYKASTDVINKGLYNLKTPYNEIFTDDGENSGGSIFELQCTATAALPQSDVIGSQFCEVQGVRGAGQWDLGWGWHMATQLMADAYETGDPRKNATLLYFRKTDDEPITPENTNEPYGESPISPAMGAYFNKKAYTDPALRKEYTNKGFWVNIRLIRYSDVVLMAAEAANEKNIPGEAVDYLEMVRARARGTNTNILPKITTNDQGELREAIRHERRVELGLEPDRFYDLVRWGIASEVLHAAGKVNYQDKNALLPLPQSEIDKSKGVLVQNPDY
glycan array binding signal (z-score) [1]: -0.343 | glycan array binding signal (z-score) [2]: -0.187 | glycan array binding signal (z-score) [3]: 0.003 | glycan array binding signal (z-score) [4]: -0.076 | glycan array binding signal (z-score) [5]: 0.151 | glycan array binding signal (z-score) [6]: -0.159 | glycan array binding signal (z-score) (GlcNAc(b1-3)GalNAc): -0.251 | glycan array binding signal (z-score) (GlcNAc(b1-3)Man): -0.251 | glycan array binding signal (z-score) [7]: -0.414 | glycan array binding signal (z-score) [8]: -0.072 | glycan array binding signal (z-score) [9]: -0.462 | glycan array binding signal (z-score) [10]: -0.275 | glycan array binding signal (z-score) (GlcNAc(b1-4)GlcNAc): -0.223 | glycan array binding signal (z-score) [11]: -0.393 | glycan array binding signal (z-score) [12]: 0.127 | glycan array binding signal (z-score) [13]: -0.291 | glycan array binding signal (z-score) [14]: -0.315 | glycan array binding signal (z-score) [15]: -0.285 | glycan array binding signal (z-score) (GlcNAc(b1-6)GalNAc): -0.359 | glycan array binding signal (z-score) [16]: 2.16 | glycan array binding signal (z-score) (Kdn(a2-3)Gal(b1-3)GalNAc): -0.314 | glycan array binding signal (z-score) (Kdn(a2-3)Gal(b1-3)GlcNAc): 0.209 | glycan array binding signal (z-score) (Kdn(a2-3)Gal(b1-4)Glc): -0.141 | glycan array binding signal (z-score) (Kdn(a2-3)Gal(b1-4)GlcNAc): -0.19 | glycan array binding signal (z-score) [17]: -0.411 | glycan array binding signal (z-score) (Kdn(a2-6)Gal(b1-4)GlcNAc): -0.383 | glycan array binding signal (z-score) [18]: -0.321 | glycan array binding signal (z-score) [19]: -0.324 | glycan array binding signal (z-score) (Man(a1-2)Man(a1-3)Man): -0.338 | glycan array binding signal (z-score) [20]: -0.344 | glycan array binding signal (z-score) [21]: 0.053 | glycan array binding signal (z-score) [22]: -0.232 | glycan array binding signal (z-score) [23]: -0.274 | glycan array binding signal (z-score) [24]: -0.001 | glycan array binding signal (z-score) [25]: -0.383 | glycan array binding signal (z-score) (Man(a1-3)[Man(a1-6)]Man): -0.167 | glycan array binding signal (z-score) [26]: -0.163 | glycan array binding signal (z-score) [27]: 0.1 | glycan array binding signal (z-score) [28]: -0.118 | glycan array binding signal (z-score) [29]: -0.221 | glycan array binding signal (z-score) [30]: -0.214 | glycan array binding signal (z-score) (Man(a1-6)Man): -0.187 | glycan array binding signal (z-score) (Man(b1-4)GlcNAc): -0.296 | glycan array binding signal (z-score) (MurNAc(b1-4)GlcNAc): -0.413 | glycan array binding signal (z-score) (Neu5Ac(a2-3)Gal): -0.357

— the supplement of paper PMC8728848
